Reference: the RNAGym collection of RNA variant scans (doi:10.1093/nar/gkz1192)
The source gives no read counts; variants with many changes may rest on few reads.

B1: CPEB3 Ribozyme (parent)
chain: UAACAGGGGGCCACAGCAGAAGCGUUCACGUCGCAGCCCCUGUCAGAUUCUGGUGAAUCUGCGAAUUCUGCUGUAUAUCUC

Variants of: B1
Test: self-cleavage, relative activity (ratio to wild type); higher = more cleavage; in vitro, sequencing
Procedure, shortened: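 Relative activity was defined as the cleaved/total read fraction for a variant divided by the same fraction for the unmutated ribozyme. CPEB3 self-cleaving ribozyme libraries were made by rounds of error-prone PCR, barcoded, and transcribed in vitro with T7 RNA polymerase for 5 hours at 37°C, and cleavage ran through transcription plus a 15 min DNase I step before EDTA. Illumina sequencing of template-switched reverse transcripts gave the reads, and DNA sequencing mapped the barcodes. Averages come from three batches, using variants with at least 5 reads.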
With A20G U41C C81U the self-cleavage was 1.1. A20G U41C G42A gave a self-cleavage of 0.28. Variant A20G U41C G42C A56U C62U A77U has a self-cleavage of 0.05. For A20G U41C G52C, the self-cleavage was 1.03. With A20G U41C G52C U69C G73U the self-cleavage was 0.69. Variant A20G U41C U43A A45U U80C has a self-cleavage of 0.32. With A20G U41C U43C A75G the self-cleavage was 0.41. A20G U41C U43G A47U showed a self-cleavage of 0.19. Work on A20G U41C U43G U80C yielded a self-cleavage of 0.36. For A20G U41C U49C U51C U60C U78C U80C, the self-cleavage was 0.11. With A20G U41C U51A A65G A77U the self-cleavage was 0.46. In the case of A20G U41C U51A C71A U72A, the self-cleavage is reported as 0.37. Work on A20G U41C U51A G63U yielded a self-cleavage of 1.16. For A20G U41C U51A U58A U67A, the self-cleavage was 0.32. A20G U41C U51C showed a self-cleavage of 1.07. In the case of A20G U41C U51C U80C, the self-cleavage is reported as 0.85. With A20G U41C U54C the self-cleavage was 0.72. In the case of A20G U41C U60A A64G U74A, the self-cleavage is reported as 0.21. Variant A20G U41C U60A U66C has a self-cleavage of 0.28. Work on A20G U41C U60G U74C U78C yielded a self-cleavage of 0.43. Work on A20G U41C U67C U69A yielded a self-cleavage of 0.59. A20G U41C U74A gave a self-cleavage of 0.91. In the case of A20G U41G A56G, the self-cleavage is reported as 0.27. A20G U41G G73U U80G gave a self-cleavage of 0.34. In the case of A20G U43A A45G U72G, the self-cleavage is reported as 0.77. For A20G U43A A56G, the self-cleavage was 0.93. In the case of A20G U43A A56U, the self-cleavage is reported as 0.34. A20G U43A A56U A57G U69G gave a self-cleavage of 0.28. For A20G U43A A64G, the self-cleavage was 0.34. In the case of A20G U43A G63A A64G C81A, the self-cleavage is reported as 0.76. Work on A20G U43A G63U yielded a self-cleavage of 1.13. A20G U43A U51A A57G showed a self-cleavage of 0.16. With A20G U43A U51C the self-cleavage was 1.07. With A20G U43A U54A U60A A77U the self-cleavage was 0.26. Work on A20G U43A U54C yielded a self-cleavage of 0.59. A20G U43A U54C A56G U76A showed a self-cleavage of 0.87. A20G U43A U74C U80A gave a self-cleavage of 1.23. A20G U43C A45G U60A A77U showed a self-cleavage of 0.07. With A20G U43C A57G A77G the self-cleavage was 0.18. With A20G U43C A64G U69A the self-cleavage was 0.04. For A20G U43C G63U, the self-cleavage was 0.24. With A20G U43C U49A U69G U80C the self-cleavage was 0.17. Variant A20G U43C U51C A57G has a self-cleavage of 0.37. A20G U43C U58C gave a self-cleavage of 0.12. A20G U43C U67C showed a self-cleavage of 0.72. In the case of A20G U43C U69C A77U, the self-cleavage is reported as 0.2. A20G U43G U49A A57G C68U showed a self-cleavage of 0.17. For A20G U43G U54C A65G, the self-cleavage was 0.35. With A20G U48A U66C U69C C71G the self-cleavage was 0.07. A20G U48C A56G showed a self-cleavage of 0.36. Variant A20G U48C A57C has a self-cleavage of 0.28. Work on A20G U48C A75U yielded a self-cleavage of 0.65. In the case of A20G U48C G55U U60A, the self-cleavage is reported as 0.21. A20G U48C U49A showed a self-cleavage of 0.37. Variant A20G U48C U49A U60C has a self-cleavage of 0.06. A20G U48C U49C gave a self-cleavage of 0.26. Variant A20G U48C U54A U66C U74C U78C has a self-cleavage of 0.15. For A20G U48C U54C, the self-cleavage was 0.25. For A20G U48C U58C U74C, the self-cleavage was 0.18. With A20G U48C U67C U80C the self-cleavage was 0.39. A20G U49A A64G U69A gave a self-cleavage of 0.29. With A20G U49A G55A U67C U72G A77U the self-cleavage was 0.42. For A20G U49A U54C A64G A75U, the self-cleavage was 0.58. In the case of A20G U49A U58C, the self-cleavage is reported as 0.13. A20G U49A U69A gave a self-cleavage of 0.26. In the case of A20G U49C A56G, the self-cleavage is reported as 0.61. In the case of A20G U49C A56U A75U, the self-cleavage is reported as 0.39. A20G U49C A75G gave a self-cleavage of 0.25. A20G U49C C81A gave a self-cleavage of 0.24. For A20G U49C U51C U60C G70A U72C, the self-cleavage was 0.19. A20G U49C U72A gave a self-cleavage of 0.07. A20G U49C U80A gave a self-cleavage of 0.07. Variant A20G U51A A56G has a self-cleavage of 0.2. With A20G U51A A64U U78A the self-cleavage was 0.23. Variant A20G U51A C68U U72A U74C has a self-cleavage of 0.63. A20G U51A U60A showed a self-cleavage of 0.25. A20G U51A U60G U78C showed a self-cleavage of 0.35. A20G U51A U67G U80A gave a self-cleavage of 0.2. In the case of A20G U51A U72C, the self-cleavage is reported as 1.1. A20G U51A U72C U78C showed a self-cleavage of 0.84. For A20G U51C A64G C68A, the self-cleavage was 0.23. For A20G U51C A65G, the self-cleavage was 0.44. Variant A20G U51C G63A G70U A77U U80C has a self-cleavage of 0.21. A20G U51C U58C showed a self-cleavage of 0.43.
